In PubChem BioAssay AID588453 (National Center for Advancing Translational Sciences (NCATS), 2011):
The campaign covered roughly 390,000 compounds. About 4,000 (1%) were called active. Inconclusive means that the source gave no clear call. Such entries were picked first, then a sample of the others. Calls follow the shape of the dose curve; as a rule, active = well fitted inhibition curve with a large enough effect; inconclusive = small, poorly fitted or top-dose-only effect; inactive = no such curve, though single readings can be large or run the other way. A potency beside an inconclusive call is a rough fit, not a confirmed value.

These compounds were tested against Thioredoxin reductase 1, cytoplasmic (Rattus norvegicus) (UniProt O89049) (assay: qHTS Assay for Inhibitors of Mammalian Selenoprotein Thioredoxin Reductase 1 (TrxR1): qHTS). Conditions: recombinant rTrxR1, NADPH fluorescence consumption, selenite substrate; series mostly up to 114 µM; activity change, negative = inhibition: at the top concentration.
UniProt O89049, sequence (O89049 whole entry, looked up): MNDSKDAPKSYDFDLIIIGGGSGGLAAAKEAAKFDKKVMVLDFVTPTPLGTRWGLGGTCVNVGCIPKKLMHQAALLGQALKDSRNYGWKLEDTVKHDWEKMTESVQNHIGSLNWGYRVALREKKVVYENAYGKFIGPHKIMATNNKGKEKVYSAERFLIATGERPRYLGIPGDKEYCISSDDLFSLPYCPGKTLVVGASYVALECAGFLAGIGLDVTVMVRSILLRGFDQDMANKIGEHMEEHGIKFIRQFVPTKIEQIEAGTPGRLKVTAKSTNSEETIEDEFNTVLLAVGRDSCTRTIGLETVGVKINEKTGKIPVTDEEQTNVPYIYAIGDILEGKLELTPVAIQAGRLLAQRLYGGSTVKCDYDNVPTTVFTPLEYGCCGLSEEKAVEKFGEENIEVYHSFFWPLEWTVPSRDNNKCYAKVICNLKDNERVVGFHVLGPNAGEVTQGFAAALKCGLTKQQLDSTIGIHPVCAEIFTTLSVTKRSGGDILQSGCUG
Outline: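 Rat TrxR1 (90 nM in the dispensed reagent) was pre-reduced with 400 uM NADPH for 5 min at room temperature, then incubated with compound for 15 min. After 400 uM selenite was added, NADPH fluorescence (Ex 340/Em 450 nm) was followed for 8 min.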
% is scaled to controls: 0 for no effect and ±100 for the full control effect; potency is read from the fitted curve at half-maximal effect; tags tell the direction and shape of the fitted curve.
Also: nearly all actives have a fitted effect of over 65% in size.

Row | SMILES | Potency | activity change, negative = inhibition
1 | CCC(c1nnnn1CC1CCCO1)N(CCCO)Cc1cc2cccc(C)c2[nH]c1=O (centres undefined) | inconclusive: 79.4 µM [inhibitor, partial curve] | 
2 | N#Cc1c(C(F)(F)F)cc(-c2cccs2)nc1SCc1ccc(F)cc1 | inconclusive: 56.2 µM [inhibitor, partial curve, poor fit] | 
3 | Oc1c(Br)cc(/C=N/n2c(-c3ccccc3)n[nH]c2=S)c(O)c1Br | inconclusive: 50.1 µM [inhibitor, partial curve] | 
4 | O=C(COc1ccc(F)cc1)Nc1nc(-c2ccccn2)cs1 |  | inactive: -16%
5 | Cc1ccc(NC(=O)CCS(=O)(=O)c2ccc(Br)s2)c(Br)c1 |  | inactive: 14.6%
6 | CN(C)S(=O)(=O)c1cc(NC2CC(=O)N(c3ccc(F)cc3)C2=O)ccc1Cl (centres undefined) | inconclusive: 56.2 µM [inhibitor, partial curve, poor fit] | 
7 | Cc1csc(NC(=O)c2cn3ccccc3n2)n1 |  | inactive: 3.57%
8 | COCC(C)NC(=O)CCS(=O)(=O)c1nc(-c2ccc(OC)cc2)cc(C(F)(F)F)n1 (centres undefined) | active: 56.2 µM | 
9 | O=C(/C=C/c1ccco1)Nc1ccc2c(c1)OCO2 | active: 70.8 µM | 
10 | COc1ccc(C(NC(=O)/C=C/c2ccco2)c2ccc(OC)c(OC)c2)cc1OC | active: 4.47 µM | 
11 | CC(=O)Oc1cc(OC(C)=O)c2c(=O)c(-c3ccc4c(c3)OCCCO4)c(C)oc2c1 | inconclusive: 79.4 µM [inhibitor, single point] | 
12 | Cc1ccc(NC(=O)Nc2ccc3c(c2)nc(C)n3C)cc1 |  | inactive: 44.3%
13 | Cc1cc(C)c(C#N)c(=N)o1 | inconclusive: 50.1 µM [inhibitor, partial curve] | 
14 | Ic1ccc(/C=C2\C=Cc3ccccc32)cc1 | inconclusive: 31.6 µM [inhibitor, partial curve] | 
15 | COC(=O)c1sc2nc(CN3CCN(c4cccc(C(F)(F)F)c4)CC3)[nH]c(=O)c2c1C | inconclusive: 70.8 µM [inhibitor, partial curve] | 
16 | Cc1oc(-c2ccccc2Cl)nc1CS(=O)(=O)CC(=O)NCc1ccc(F)cc1 | inconclusive: 17.8 µM [inhibitor, full curve] | 
17 | CCOc1ccc(C(=O)NC(=S)Nc2ncccc2C)cc1[N+](=O)[O-] |  | inactive: 4.72%
18 | COC(=O)c1cccc(S(=O)(=O)N(Cc2ccco2)Cc2cc3cc(OC)ccc3[nH]c2=O)c1 | inconclusive: 22.4 µM [inhibitor, partial curve, poor fit] | 
19 | C/C(=N\N(C)C)c1ccc(OCCOc2ccc([N+](=O)[O-])cc2)cc1 | inconclusive: 28.2 µM [inhibitor, partial curve, poor fit] | 
20 | CCc1ccc(C(=O)c2cn(CC(=O)Nc3cccc(OC)c3)c3cc4c(cc3c2=O)OCO4)cc1 |  | inactive: 11.7%
21 | COC(=O)C(C)Oc1ccc2c(c1)O/C(=C\c1ccco1)C2=O (centres undefined) | inconclusive: 56.2 µM [inhibitor, partial curve, poor fit] | 
22 | CCOc1ccccc1NC(=O)N(Cc1ccc(C)o1)C1CCN(C(C)=O)CC1 |  | inactive: 12.2%
23 | CCCCC[C@@H](/C=C/C1C(=O)C=C[C@H]1C/C=C\CCCC(=O)O)OC(C)=O (some centres undefined) | inconclusive: 44.7 µM [inhibitor, partial curve, poor fit] | 

Row | SMILES | Potency | activity change, negative = inhibition
24 | COc1cc(CN2CCNC(=O)C2CC(=O)NC2CCCC2)cc(OC)c1 (centres undefined) | inconclusive: 28.2 µM [inhibitor, partial curve, poor fit] | 
25 | Cc1ccc(-c2ccc(CCC(=O)O)n2Cc2ccco2)cc1 | inconclusive: 15.8 µM [inhibitor, full curve] | 
26 | O=C(NC(=S)Nc1ccc(F)cc1)c1ccc2c(c1)OCCO2 | inconclusive: 3.98 µM [inhibitor, full curve] | 
27 | Cc1ccc2ccc3c(c2n1)NS(=O)(=O)c1ccc(C(F)(F)F)cc1-3 |  | inactive: -14%
28 | COc1ccc(O)c(C(=O)c2cnn(C(=O)c3cccc(N(C)C)c3)c2)c1 | inconclusive: 89.1 µM [inhibitor, single point] | 
29 | COc1ccc(OC)c(NC(=O)C2Cc3ccccc3CN2S(=O)(=O)c2ccc(F)cc2)c1 (centres undefined) |  | inactive: 13.6%
30 | Cc1cc(NS(=O)(=O)c2ccc(Nc3nc(-c4sc(N)nc4C)cs3)cc2)no1 | inconclusive: 28.2 µM [inhibitor, full curve, poor fit] | 
31 | O=C(c1ccc2c(c1)C(=O)N(Cc1ccco1)C2=O)N1CCOCC1 | inconclusive: 20 µM [inhibitor, full curve] | 
32 | O=C(COc1cccc(F)c1)Oc1ccc(C(=O)c2ccccc2)cc1 | inconclusive: 15.8 µM [inhibitor, partial curve, poor fit] | 
33 | CN1c2ccc(C=O)c3c(C=O)ccc(c23)N(C)C1(C)C | inconclusive: 44.7 µM [inhibitor, partial curve] | 
34 | Fc1ccc(C(c2nnnn2Cc2ccco2)N2CCN(C3CCCCC3)CC2)cc1 (centres undefined) | inconclusive: 56.2 µM [inhibitor, partial curve] | 
35 | CC(=O)C1(C)N(O)C(C)(C)C(c2cccs2)=[N+]1[O-] (centres undefined) | inconclusive: 15.8 µM [inhibitor, partial curve] | 
36 | NNc1nnnc2c1sc1nc(N3CCOCC3)c3c(c12)CCCC3 |  | inactive: -18.6%
37 | CC(=O)Cc1nsc(NC(=O)c2ccccc2Cl)n1 | inconclusive: 7.08 µM [inhibitor, partial curve] | 
38 | CCCC1=NN2C(=N)/C(=C\c3cc(C)n(Cc4ccccc4)c3C)C(=O)N=C2S1 |  | inactive: -5.51%
39 | Cc1nn(CC(=O)Nc2ccccn2)c(C)c1Br | inconclusive: 79.4 µM [inhibitor, single point] | 
40 | CC(C)(C)c1cc(C(=O)NN)n(Cc2ccc(F)cc2)n1 |  | inactive: 9.03%
41 | Cn1c(=O)c2c([nH]c(=S)n2CCCc2ccccc2)n(C)c1=O |  | inactive: -10.6%
42 | Cc1ccc(CNC(=O)C2CC3Cn4c(nc5cc(Cl)c(Cl)cc54)C3N2C)o1 (centres undefined) | inconclusive: 22.4 µM [inhibitor, single point] | 
43 | Cc1ccsc1C=Nc1ccc(O)cc1 | active: 56.2 µM | 
44 | COc1ccccc1-c1nnc(NC(=O)c2ccc(S(=O)(=O)N(C)C)cc2)o1 | inconclusive: 28.2 µM [inhibitor, single point] | 
45 | CCOC(=O)c1[nH]c2c(c1Cc1ccccc1OC)C(=O)CC(c1ccc(OC)cc1)C2 (centres undefined) |  | inactive: 12.7%
46 | CCc1ccc(-n2c(=O)c3c4c(sc3n(Cc3cc(=O)n5c(C)cccc5n3)c2=O)CCC4)cc1 |  | inactive: 2.76%

Row | SMILES | Potency | activity change, negative = inhibition
47 | CC(C(=O)NCc1ccccc1)N(Cc1ccccc1Cl)C(=O)c1snc(C(N)=O)c1N (centres undefined) |  | inactive: 9.34%
48 | O=C(COC(=O)C1CC2C=CC1C2)NCc1ccco1 (centres undefined) | inconclusive: 14.1 µM [inhibitor, partial curve, poor fit] | 
49 | CO/N=C/c1c(-c2ccc(Cl)cc2)nc2cc(C)ccn12 |  | inactive: -3.58%
50 | COc1ccc(S(=O)(=O)N2CCC(C(=O)N(C)Cc3ccc(C)o3)CC2)cc1OC | inconclusive: 79.4 µM [inhibitor, single point] | 
51 | Cc1ccccc1N/C(=C(/C(Cl)=C(Cl)Cl)[N+](=O)[O-])n1nnc2ccccc21 | active: 10 µM | 
52 | Cc1ccc(CNC(=O)CN2C(=O)COc3ccc(S(=O)(=O)N4CCCCC4)cc32)o1 | inconclusive: 79.4 µM [inhibitor, single point] | 
53 | COC(=O)c1ccccc1NC(=O)c1ccc(COc2cccc3ccccc23)o1 | inconclusive: 35.5 µM [inhibitor, single point] | 
54 | O=C(COC(=O)CCC(=O)c1ccc(Cl)cc1)NCc1ccco1 | inconclusive: 44.7 µM [inhibitor, partial curve] | 
55 | Cc1cc(NC(=O)c2ccccc2)n(-c2nc3ccccc3[nH]2)n1 |  | inactive: 30.9%
56 | COc1ccccc1CCNC(=O)Cc1ccc(NC(=O)N2CCSc3ncccc32)cc1 |  | inactive: 24.2%
57 | CCN1CCN(Cc2c(O)ccc3c2O/C(=C\C=C\c2ccccc2OC)C3=O)CC1 | inconclusive: 89.1 µM [inhibitor, single point] | 
58 | Cc1ccc(S(=O)(=O)c2nc(C)oc2N2CCOCC2)cc1 | inconclusive: 3.55 µM [inhibitor, single point] | 
59 | Cc1oc(-c2cccc(Cl)c2)nc1CS(=O)(=O)CC(=O)NC1CC1 | inconclusive: 79.4 µM [inhibitor, single point] | 
60 | COCCn1nnnc1C(c1cc2cc(C)cc(C)c2[nH]c1=O)N1CCN(c2ccccc2F)CC1 (centres undefined) | inconclusive: 56.2 µM [inhibitor, single point] | 
61 | CCOc1ccc2oc(=O)cc(CN3CCN(C(=O)c4ccc(OC)c(OC)c4)CC3)c2c1 | inconclusive: 79.4 µM [inhibitor, partial curve, poor fit] | 
62 | Cc1ccc(CN2CCC(Oc3ccc(C(=O)NCc4ccccn4)cc3)CC2)o1 | inconclusive: 44.7 µM [inhibitor, partial curve] | 
63 | CCn1c(-c2c(Cl)c(C)nn2C)n[nH]c1=S | inconclusive: 0.562 µM [inhibitor, partial curve, poor fit] | 
64 | CC(=O)N1CCN(CCN=CC2=C(O)CC(c3cccs3)CC2=O)CC1 (centres undefined) | inconclusive: 100 µM [inhibitor, single point] | 
65 | CCOCCOC(=O)c1ccc(NC(=O)c2cc(OC)c(OC)c(OC)c2Br)cc1 | inconclusive: 89.1 µM [inhibitor, single point] | 
66 | CCOC(=O)c1ccc(-c2ccc(C(=O)Nc3cccnc3)o2)cc1 | inconclusive: 31.6 µM [inhibitor, partial curve, poor fit] | 
67 | Nc1ccc(-c2ncc(-c3ccccc3)o2)cc1 |  | inactive: 184%
68 | COc1ccccc1N1Cc2ccccc2C1 | inconclusive: 11.2 µM [inhibitor, partial curve] | 
69 | COc1ccc(/C(C)=N/Nc2ccc(C(=O)O)cc2)cc1OC | inconclusive: 50.1 µM [inhibitor, partial curve, poor fit] | 
